According to PubChem BioAssay AID1159614 (National Center for Advancing Translational Sciences (NCATS), 2016):
The whole screen tested about 45,000 compounds, of which about 65 (0.1%) were called active. Calls follow the shape of the dose curve; as a rule, active = well fitted activation curve with a large enough effect; inconclusive = small, poorly fitted or top-dose-only effect; inactive = no such curve, though single readings can be large or run the other way. The list shows a part of the results.

Target: Galactocerebrosidase (Homo sapiens) (UniProt P54803)
UniProt P54803, sequence (P54803 whole entry, looked up): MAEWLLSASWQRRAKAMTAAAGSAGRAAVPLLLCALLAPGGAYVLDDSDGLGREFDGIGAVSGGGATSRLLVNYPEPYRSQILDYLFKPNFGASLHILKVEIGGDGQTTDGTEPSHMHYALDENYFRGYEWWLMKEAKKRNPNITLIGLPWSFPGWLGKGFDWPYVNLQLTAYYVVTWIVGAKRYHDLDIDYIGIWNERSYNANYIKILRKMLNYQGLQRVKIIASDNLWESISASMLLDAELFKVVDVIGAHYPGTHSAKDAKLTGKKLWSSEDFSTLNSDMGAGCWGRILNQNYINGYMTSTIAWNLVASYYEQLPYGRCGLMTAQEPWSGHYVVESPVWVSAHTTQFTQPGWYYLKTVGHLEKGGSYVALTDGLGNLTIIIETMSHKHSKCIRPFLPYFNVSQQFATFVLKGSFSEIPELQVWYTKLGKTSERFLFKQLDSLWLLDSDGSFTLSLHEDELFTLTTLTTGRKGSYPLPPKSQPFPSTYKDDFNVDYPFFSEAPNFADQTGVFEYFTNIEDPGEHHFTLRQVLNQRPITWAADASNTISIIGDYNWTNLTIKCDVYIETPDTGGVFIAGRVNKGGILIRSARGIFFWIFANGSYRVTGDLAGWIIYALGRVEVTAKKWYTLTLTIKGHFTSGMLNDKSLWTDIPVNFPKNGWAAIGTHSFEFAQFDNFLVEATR
Experiment: A Novel Cell-Based Assay to Identify Small Molecules for B -Galactocerebrosidase; also: 0% is about no effect; nearly all actives have a fitted effect of over 65% in size
Details: 145M-Twi-hGALC-G270D cells (Twitcher mouse brain line with human GALC G270D), HMU-beta-Gal fluorescence, 48 h; series mostly up to 57.5 µM; activation: at the top concentration
Procedure, shortened: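 Mutant human GALC (G270D), stably expressed in a Twitcher mouse brain cell line lacking endogenous GALC, is measured in live-treated cells via 6-hexadecanoylamino-4-methylumbelliferyl-β-galactoside hydrolysis (0.1 mM final, pH 5.2) with fluorescent detection.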

| Structure (SMILES) | activation |
| --- | --- |
| O=C(O)c1ccc(NC(=O)c2ccc(Cl)c(S(=O)(=O)N3CCCCCC3)c2)cc1 | inactive: -17.3% |
| CN(C1CCCCC1)S(=O)(=O)c1ccc2c(c1)c(=O)c(C(=O)N1CCN(c3ccccc3)CC1)cn2C | inactive: -18.4% |
| Cc1ccc(NC(=O)CN2C(=O)CCSc3ccccc32)c(C)c1 | inactive: -2.72% |
| COc1ccc(CCNC(=O)c2ccc3c(c2)nc(C)n3-c2ccc(Br)cc2)cc1OC | inactive: -21.7% |
| Cc1nc2c3ccccc3nc(NNC(=O)CCC(=O)O)n2n1 | inactive: -14.8% |
| Cc1ccccc1NC(=O)c1cc2c([nH]c1=O)CC(C)(C)CC2=O | inactive: -17.4% |
| Cc1ccc(Cn2c(CO)cnc2SCc2ccc(F)cc2)cc1 | inactive: -32.2% |
| Nc1ccc(S(=O)(=O)NCc2ccccc2)cc1 | inactive: -9.14% |
| O=C(Nc1ccc(Cl)cc1Cl)c1cc(S(=O)(=O)NCc2ccc3c(c2)OCO3)ccc1F | inactive: -6.86% |
| CCOc1ccc(C(=O)Nc2ccc(-c3cc4ccccc4oc3=O)cc2)cc1Br | inactive: -20.2% |
| CN(C)c1ccc(CNC(=O)C2CCN(c3nnc(-n4cccc4)s3)CC2)cc1 | inactive: -21.3% |
| Cc1nn(CCC(=O)Nc2ccc(Cl)cc2)c(C)c1S(=O)(=O)N1CCCCC1 | inactive: -35.3% |
| COc1ccccc1Cn1cc(C(=O)c2ccccc2)c(=O)c2cc(OC)c(OC)cc21 | inactive: -11.8% |
| Cc1ccc(C)c(NC(=O)Nc2cc3c(cc2N2CCCCC2)n(C)c(=O)n3C)c1 | inactive: -13.1% |
| COc1ccc(Cn2c(C(=O)O)c(CNCc3ccco3)c3ccc(C)cc32)cc1 | inactive: -9.18% |
| CCc1cccc(NC(=O)C2CCN(S(=O)(=O)c3ccc(Br)s3)CC2)c1 | inactive: -11.1% |
| COc1cc(OC)c(NC(=O)C2=C(C)C(=O)OC23CCN(C(C)=O)CC3)cc1Cl | inactive: -0.603% |
| CC1CC(OC(=O)c2ccccc2O)CC(C)(C)C1 (centres undefined) | inactive: -13.7% |
| O=C(NCc1ccccc1)c1cccn1-c1nnc(N2CCCCC2)s1 | inactive: -5.46% |
| Cc1ccc(-n2ncc3c(=O)n(Cc4cccc(Cl)c4)cnc32)cc1C | inactive: -16.1% |
| Cc1ccc(CSc2nc3cccnc3n2Cc2ccc(C(=O)NC3CC3)cc2)cc1 | inactive: 0.846% |
| Cn1c(NCc2cccc(Cl)c2)nc2ccccc21 | inactive: -9.24% |
| CCCn1c2ccccc2c2cnn(CC(=O)NCCc3ccc(S(N)(=O)=O)cc3)c(=O)c21 | inactive: -0.0922% |
| COCCNC(=O)CSc1c(C)cnc2c1c(=O)n(C)c(=O)n2C | inactive: -15.6% |
| COc1ccc(NC(=O)CCCOc2cc(=O)n(C)c3ccccc23)c(OC)c1 | inactive: -12.1% |

| Structure (SMILES) | activation |
| --- | --- |
| Cc1ccc(NC(=O)Cn2cnc3c(oc4ccccc43)c2=O)cc1Cl | inactive: -5.77% |
| Brc1cccc(-c2nnn3c2nc(NC2CCCCC2)c2ccccc23)c1 | inactive: -7.7% |
| Cc1ccc(-n2c(=O)c3ccc(C(=O)NCc4ccco4)cc3n(Cc3ccccc3Cl)c2=O)cc1 | inactive: -15.6% |
| COc1ccccc1C(=O)Nc1nnc(SCc2cc(=O)c3ccccc3[nH]2)s1 | inactive: -9.8% |
| C=Cc1ccc(CN2C(=O)N(c3ccc(C)c(C)c3)S(=O)(=O)c3ccccc32)cc1 | inactive: 0.496% |
| CCOc1ccc(NC(=O)c2cc3cc4ccc(C)cc4nc3o2)cc1 | inactive: -13.5% |
| Cc1cccc(C)c1Nc1sc(C(=O)c2ccccc2)c(N)c1S(=O)(=O)c1ccccc1 | inactive: -8.87% |
| COc1ccc2nc3sc(C(=O)NCCc4ccc(Cl)cc4)cc3cc2c1 | inactive: -11.5% |
| CC1CCCCN1CCNC(=O)c1ccc(Cn2c(SCc3ccccc3)nc3cccnc32)cc1 (centres undefined) | inactive: -16.1% |
| CCS(=O)(=O)c1ncc(Cl)c(C(=O)Nc2ccc(S(=O)(=O)N(C)c3ccccc3)cc2)n1 | inactive: -52.4% |
| Cc1nn(-c2ccc(N3CCOCC3)nn2)c(C)c1CCC(=O)NCc1ccc(Cl)cc1 | inactive: 3.63% |
| CCC(C)n1c(SCC(=O)Nc2ccccc2C(=O)OC)nc2ccsc2c1=O (centres undefined) | inactive: 3.52% |
| O=C(NCc1c(-n2cccc2)sc2c1CCCC2)Nc1cccc(C(F)(F)F)c1 | inactive: -8.92% |
| Cc1cc(Nc2ccccc2C)c2cccc(C)c2n1 | inactive: -7.22% |
| COc1cccc(CNC(=O)c2cccc(N3CCCS3(=O)=O)c2)c1 | inactive: -7.06% |
| COCCCNC(=O)CCCn1c(SCC(=O)c2ccc(Br)cc2)nc2c(sc3ccccc32)c1=O | inactive: -9.98% |
| Cc1ccc(C(=O)NCC(c2ccc(Cl)cc2)N2CCCCC2)cc1 (centres undefined) | inactive: -10.2% |
| CCc1ccc(NC(=O)C2CCCN(S(=O)(=O)c3ccc4c(c3)oc(=O)n4C)C2)cc1 (centres undefined) | inactive: -9.98% |
| CCOc1ccc(C(=O)N2CC(=O)Nc3ccc(C)cc3C2c2ccc(F)cc2)cc1OCC (centres undefined) | inactive: -1.69% |
| Cc1cc2oc(C(=O)N(Cc3ccc(Cl)cc3)Cc3ccco3)c(C)c2cc1Cl | inactive: -8.61% |
| Cc1cc(C)c(NC(=O)c2cc(C)nc3c2c(C)nn3-c2cccc(F)c2)c(C)c1 | inactive: -12.6% |
| CCc1ccc(-c2nn(-c3ccc(OC)cc3)c3c2cnc2ccc(OC)cc23)cc1 | inactive: -24.3% |
| CCN(CC)C(=O)c1c(NC(=O)c2ccccc2F)sc2c1CCC(C(C)(C)C)C2 (centres undefined) | inactive: -15.4% |
| CC(C)(C)OC(=O)N1CCC(c2c(C(=O)N3CCCCC3)cnn2-c2ccc(F)cc2)CC1 | inactive: -10.2% |
